Experimental data: the RNAGym collection of RNA variant scans (doi:10.1093/nar/gkz1192)
The source gives no read counts; variants with many changes may rest on few reads.

B1: CPEB3 Ribozyme (parent)
chain: UAACAGGGGGCCACAGCAGAAGCGUUCACGUCGCAGCCCCUGUCAGAUUCUGGUGAAUCUGCGAAUUCUGCUGUAUAUCUC

Variants of: B1
Test: self-cleavage, relative activity (ratio to wild type); higher = more cleavage; in vitro, sequencing
Method in brief: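 After error-prone PCR and barcoding, CPEB3 ribozyme mutant libraries were transcribed with T7 RNA polymerase at 37°C for 5 hours, then given 15 min with DNase I before an EDTA stop, and they cleaved during both steps. Reverse transcription with template switching preceded Illumina sequencing. Relative activity divides a variant's cleaved/total read fraction by the unmutated ribozyme's. At least 5 reads were required per variant, and three batches were averaged.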

Variant | self-cleavage
U26C C37G A45G U54G G55U A65G U80A | 0.05
U26C U58C U78C | 0.21
U26G U31C A64G U72C | 0.06
U26G A35G U43C U54C | 0.82
U26C A35G U72C | 0.95
U26C U43C A64G | 0.45
U26C A47U U48C A56G U58C U76C A77G | 0.1
A28G A56G C59U | 0.42
A28G A57G U60C A64U U74C | 0.13
A28G A35G U76C | 1.16
C27A U66C C71U | 0.09
A28C U43C U49C A64G U72G | 0.03
U26C U74A U80C | 0.84
A28G A47U U72A | 0.13
U26C A56U U72C | 0.39
A28G A35U U60A U76C U80A | 0.09
A28G A45G A65U U76A U80C | 0.11
A28C U48C U58C | 0.15
U26C U54A U60C | 0.21
U26C A28G U67C | 0.19
A28G G33A A35G U43A | 0.13
U26C A45G G63A | 0.25
U26C A47G U48C A56G C68U U74C | 0.16
U26C U51A A57U | 0.36

Variant | self-cleavage
U26C C29G A35U A45G C68A | 0.19
U26C A64G G70C U72C | 0.09
A28G C40U A45U | 0.38
A28G A35G A45G U51A A56G | 0.8
U26C C27U U58G U72C | 0.16
U26C U69G U78C | 0.23
U26C U60C A75U U78C | 0.15
U26C U43C U58C U69C | 0.48
U26C U51C U74C | 0.81
U26C A28U G70A | 0.07
U26C U41A U54C | 0.3
U26C U43A U54C | 0.21
U26C U41G G70A U80C | 0.16
C27U U31C A45G U60A C62U | 0.07
U26C A35U U67C C68U U69A U72C | 0.16
A28G A35G U67C U69C | 0.24
U26C A57G C68U | 0.3
A28G A77G U78C | 0.38
A28G A35G A57G A65G U69A G70U | 0.34
A28G C37U U60C U69C A77G | 0.16
C27U A45G A56G | 0.19
U26C U31C U54A | 0.31
A28C U31A U41C G63A A64G A65G | 0.27
A28G G33C A57G | 0.14

Variant | self-cleavage
C27A C34U A35G U60C | 0.13
U26C A35U U49C U74C | 0.1
U26C G33A U58A U72G U78C | 0.08
C27U U31A U41C U60A U72C | 0.16
U26C A56G U66C | 0.17
A28C U60A U80A | 0.35
U26C U67C U69A | 0.18
U26C A56G C68U | 0.09
A28G C59U A64G U76C | 0.28
A28G A75G U80A | 0.47
U26C U51A U60C U78A | 0.13
U26C U54C A77U | 0.58
A28G C39A U66C U67C G70A | 0.55
A28G C38U U60A C71U | 0.08
U26C U41A U76C | 0.32
C27A A64G U76C | 0.23
A28G C40U U41G A75G U78C | 0.08
A28C C29A C37G | 0.52
A28G C32A G63A | 0.12
U26C U31C G53A | 0.31
C27U A45C U72A | 0.05
U26C U31C A45G U48C U49C | 0.42
U26C G30U U41C U54C A57G U72A | 0.14
U26G A47G U67C | 0.07

Variant | self-cleavage
A28C U41C G42C U48C | 0.11
C27A U41C G46C U48C A64G | 0.13
U26C U51C U58C U69C | 0
A28G C34U A64U U66C | 0.13
U26C U31C A77U U80C | 0.27
U26C A45U U58C U72C | 0.06
A28G A35G G42U U49A U58C | 0.05
U26G A35G A56G A57G | 0.31
U26C U51A A75U | 0.56
A28C U31A U54A | 0.27
A28G A64G G73C | 0.47
U26C A65G C68A A77G | 0.08
U26C U31A A47U U76A | 0.14
U26C U51C C59G A64G U67A | 0.23
A28C U41C U72A | 0.18
U26C C40U U72A U80A | 0.27
U26C U31A A75G | 0.12
U26C A56C U69C | 0.11
U26C C50U A56G A65U | 0.15
U26C U51C U66C U69A | 0.16
U26C U43C U51A | 0.58
A28G C29U U74A | 0.3
U26C U31C C34U A64G | 0.15
U26G U31C C71A | 0.14

Variant | self-cleavage
U26C U31C U51A | 0.28
U26C A64U U72A | 0.07
U26C A35U A47G A56G | 0.1
U26G U43C G52U C62A G73A | 0.21
U26C A56U A77U | 0.26
U26C C29U A45C G52A U76C U78C | 0.19
C27U U49A U72A | 0.36
U26C U60A C62A U69A U74C | 0.13
A28G G53C U67C C68A G70U G73A | 0.21
A28G C39G U69C | 0.35
A28G G30U A56G A64G U72A | 0.06
C27U A35G C79U | 0.62
U26C U48C U51C | 0.19
U26C U31C A35C G36A U60A | 0.13
U26C C34U A56G A57G A75G | 0.05
U26C U48C A56G | 0.16
A28G C39A U43C U72A | 0.04
A28C U54C A65U G70A | 0.07
U26C U43A A47G | 0.16
A28C C40U A45G | 0.2
C27G U66C A75U | 0.09
U26C A56U A64U U72C | 0.13
A28G A45G U76C | 0.62
U26C A64G U69C | 0.15

Variant | self-cleavage
C27G C32G A45U A77G | 0.08
U26C U60A C81U | 0.71
U26C C27U G53A A56G | 0.3
U26C U54A U58C U69A | 0.11
A28C U49C U60G C62U | 0.06
U26C U51C A56G U66C | 0.28
U26C A47G U80C | 0.39
C27U U31C G33A A56G A57G U78C | 0.06
U26C U43G U48C | 0.41
U26C C38U U43C | 0.41
U26C A28G U72C C81U | 0.34
A28G G30U U48C | 0.12
C27U G53A U69A | 0.14
C27U A57G U72G | 0.22
A28C A57G G63A U66C A75G A77U | 0.11
U26C A45G G52A A65G U80C | 0.59
U26C U66C U67C | 0.26
A28C U31C A56U U76C | 0.1
U26C C32U U41C A45G A57G U60C | 0.03
U26G U49C A64U U72C | 0.05
U26C C50A U66C | 0.16
U26C U48A U51A | 0.22
U26C A28U U31C A35U A57G | 0.17
U26C G55A U67C | 0.17

Variant | self-cleavage
A28G A47G U51C U54A A57U U69A | 0.08
A28G C38G A45G U51A U69C | 0.06
U26C U31C G63A U74C U76C | 0.27
U26C U48C U66A | 0.44
U26C U31A U41C G46A A56U U78A | 0.2
U26C A28U C62U | 0.11
A28G A45C A47G U51A U66C | 0.08
U26C C29G U31A U48C A56U | 0.17
U26C A64G A77U | 0.42
A28G C32U A57U U69C | 0.07
U26C U31C A56G | 0.33
A28G A45G U51C A77U | 0.38
U26C C29U A45U | 0.26
A28G A45U G53A U60C | 0.12
U26C A28U U48C A75G | 0.33
U26C G33A U80A | 0.18
U26C U41C U67C | 0.15
U26C A35U A56G A65U U69C | 0.12
U26C A35U C44U G61C U67A | 0.17
U26C A56U U58G U60C A64G | 0.29
A28G A64G U74C | 0.83
U26C A45G U48C U58A | 0.08
U26C C50A U69C | 0.15
